The test concerns NCI-H322M lung. The test is described as follows: NCI tumour cell line growth inhibition, 48 h.

This note sets out measurements from PubChem BioAssay (NCI).

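How tested: cells in 96-well plates exposed to compound for 48 hours at five concentrations. GI50 marks 50% less growth. At the TGI there is no net growth.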

As to `Cc1[nH]nc2ccc(-c3nc4cnc(N5CCN(C)CC5)cn4c3Nc3ccc(F)cc3Br)cc12`, the GI50 is 2.72 µM and the TGI is 10.9 µM.

Take `CC(Nc1ncnc2ccc(-c3cnc(N)nc3)cc12)c1ccccc1` (centres undefined): the GI50 was 2.99 µM and the TGI was 14.4 µM.
